# Results as given in the supplement of paper PMC9446081.
# The whole screen tested about 39,000 compounds, of which about 220 (0.56%) showed activity. Some of the results follow.
# System: Escherichia coli K-12 BW25113
# Test: relative growth (OD600 normalised to plate interquartile mean) (fraction); higher = less growth inhibition, active = 0.2 or less
# Conditions: 50 µM; LB; incubation time: overnight (16-24 h)
# 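Also: static incubation at 37 °C against the wild-type strain, values averaged over two biological replicates.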
row,SMILES,relative growth
1,COc1ccc(S(=O)(=O)Nc2cccc3c2O[C@@H](CN(C)S(=O)(=O)c2ccc(OC)cc2)[C@@H](C)CN([C@H](C)CO)C3=O)cc1,inactive: 1.01
2,O=C1COC2(CN1)COC2,inactive: 1
3,C[C@@H]1CN([C@@H](C)CO)C(=O)Cc2cc(NC(=O)CCN3CCOCC3)ccc2O[C@H]1CN(C)Cc1ccncc1,inactive: 0.993
4,COc1ccc2c3c([nH]c2c1)[C@@H](CO)N(C[C@]13CCN(CC1)C(=O)NC(C)C)C(=O)CN1CCOCC1,inactive: 1
5,Cc1ccc(OC(=O)N(C)C[C@@H]2OCc3ccccc3-c3ccccc3C(=O)N([C@@H](C)CO)C[C@H]2C)cc1,inactive: 1
6,CC(C)NC(=O)Nc1cccc2c1O[C@@H](CN(C)S(=O)(=O)c1ccc(F)cc1)[C@@H](C)CN([C@H](C)CO)C2=O,inactive: 0.989
7,Cc1noc(C)c1NC(=O)Nc1cccc2c1O[C@H](CN(C)S(C)(=O)=O)[C@@H](C)CN([C@@H](C)CO)C2=O,inactive: 1.02
8,CN1CCN(C(=O)C[C@@H]2CC[C@@H]3[C@H](COC[C@@H](O)CN3C(=O)C3CCCC3)O2)CC1,inactive: 1
9,Cc1ccccc1S(=O)(=O)N1C[C@@H](O)COC[C@@H]2O[C@@H](CC(=O)NCCc3ccccc3)CC[C@H]21,inactive: 0.999
10,C[C@@H]1CCCCO[C@@H](CN(C)S(=O)(=O)c2ccc(Cl)cc2)[C@@H](C)CN([C@@H](C)CO)C(=O)c2cc(NC(=O)Nc3ccc4c(c3)OCO4)ccc2O1,inactive: 1.01
11,CNC(=O)C[C@H]1CC[C@H]2[C@@H](COc3ccc(NC(=O)CN(C)C)cc3C(=O)N2C)O1,inactive: 1
12,C[C@@H]1CN([C@H](C)CO)C(=O)Cc2cc(NS(=O)(=O)c3cn(C)cn3)ccc2O[C@@H]1CN(C)C,inactive: 1.02
13,CC1(C)OC(=O)C2(C(=O)O1)[C@@H](c1ccc(Br)cc1)CC(=O)C[C@H]2c1ccc(Br)cc1,inactive: 1.03
14,C[C@H]1CN([C@@H](C)CO)C(=O)Cc2cc(NS(=O)(=O)c3ccccc3)ccc2O[C@@H]1CN(C)Cc1ccc2c(c1)OCO2,inactive: 1.01
15,CC(C)NC(=O)Nc1cccc2c1O[C@H](CN(C)S(=O)(=O)c1ccc(F)cc1)[C@H](C)CN([C@@H](C)CO)C2=O,inactive: 0.989
16,CC(C)NC(=O)Nc1ccc2c(c1)C(=O)N([C@H](C)CO)C[C@@H](C)[C@H](CN(C)CC1CCCCC1)OCCCC[C@@H](C)O2,inactive: 0.997
17,Cc1noc(C)c1S(=O)(=O)N(C)C[C@H]1Oc2ccc(NC(=O)NC(C)C)cc2CC(=O)N([C@H](C)CO)C[C@H]1C,inactive: 1.01
18,Cc1noc(C)c1S(=O)(=O)Nc1ccc2c(c1)C(=O)N([C@H](C)CO)C[C@H](C)[C@@H](CN(C)C(=O)Nc1ccc(F)cc1)OCCCC[C@@H](C)O2,inactive: 0.988
19,C[C@H]1CN([C@@H](C)CO)C(=O)c2cccc(NC(=O)Nc3ccc(C(F)(F)F)cc3)c2O[C@H]1CN(C)C(=O)Nc1ccc(C(F)(F)F)cc1,inactive: 1.02
20,C[C@H]1CN([C@@H](C)CO)C(=O)c2cc(NS(C)(=O)=O)ccc2O[C@@H]1CN(C)S(=O)(=O)c1cn(C)cn1,inactive: 1
21,C[C@H](CO)N1C[C@H](C)[C@H](CN(C)Cc2ccc(C(=O)Nc3ccccc3N)cc2)Oc2c(NC(=O)c3ccc(-c4nccs4)cc3)cccc2C1=O,inactive: 1.02
22,COC(=O)CCCCCCC(=O)Nc1ccc([C@H]2O[C@@H](CSc3ccccn3)C[C@H](c3ccccc3)O2)cc1,inactive: 1.04

row,SMILES,relative growth
1,C[C@H](CO)N1C[C@H](C)[C@@H](CN(C)S(C)(=O)=O)Oc2cc(-c3cccc(F)c3)ccc2S1(=O)=O,inactive: 1
2,CCN(CC)CCNC(C(=O)OCCC(C)C)c1ccccc1.Cl.Cl (centres undefined),inactive: 1.16
3,COc1ccc(S(=O)(=O)N(C)C[C@@H]2Oc3c(NS(C)(=O)=O)cccc3C(=O)N([C@@H](C)CO)C[C@H]2C)cc1,inactive: 0.992
4,Cc1noc(C)c1S(=O)(=O)Nc1ccc2c(c1)C(=O)N([C@H](C)CO)C[C@H](C)[C@@H](CN(C)S(=O)(=O)c1ccc(F)cc1)O2,inactive: 1.02
5,c1ccc2c(c1)Cn1nnnc1-2,inactive: 1.03
6,Cc1noc(C)c1S(=O)(=O)N(C)C[C@@H]1Oc2ccc(NC(=O)C3CCCCC3)cc2CC(=O)N([C@H](C)CO)C[C@@H]1C,inactive: 0.989
7,CC(=O)OC[C@H]1O[C@H](C/C=N/O[C@H](C)c2cn([C@@H]3COC[C@H]3O)nn2)C=C[C@@H]1OC(C)=O,inactive: 1
8,O=C1CCNCCN1,inactive: 1.03
9,COc1ccc(NC(=O)N(C)C[C@H]2OCCCC[C@H](C)Oc3ccc(NS(=O)(=O)c4ccc(C)cc4)cc3C(=O)N([C@@H](C)CO)C[C@H]2C)cc1,inactive: 1.02
10,Cc1ccc(S(=O)(=O)Nc2ccc3c(c2)C(=O)N([C@@H](C)CO)C[C@@H](C)[C@@H](CN(C)S(=O)(=O)c2ccc(C)cc2)OCCCC[C@@H](C)O3)cc1,inactive: 1
11,C[C@@H]1CN([C@@H](C)CO)C(=O)c2cc(NC(=O)Nc3ccc4c(c3)OCO4)ccc2O[C@@H]1CN(C)C(=O)Nc1cccc2ccccc12,inactive: 1.03
12,C[C@@H]1CN([C@@H](C)CO)S(=O)(=O)c2ccc(Br)cc2O[C@@H]1CN(C)Cc1ccc(C(=O)O)cc1,inactive: 0.985
13,C[C@H]1CN([C@@H](C)CO)C(=O)c2cccc(NC(=O)Nc3ccc4c(c3)OCO4)c2O[C@H]1CN(C)Cc1ccc(Oc2ccccc2)cc1,inactive: 0.961
14,CN1CCN2c3ccccc3Cc3ccccc3C2C1.Cl (centres undefined),inactive: 1.03
15,O=c1[nH]c2ccsc2c(=O)n1CCO,inactive: 0.976
16,O=C(NCCN1CCCC1)[C@H]1[C@H](CO)[C@H]2Cn3c(cccc3=O)[C@@H]1N2C(=O)c1ccccc1,inactive: 0.992
17,C[C@@H]1CN([C@H](C)CO)C(=O)c2cccc(NS(=O)(=O)c3cccs3)c2O[C@H]1CN(C)CC1CC1,inactive: 0.885
18,C[C@@H]1CN([C@H](C)CO)C(=O)c2cccc(NC(=O)Nc3cccc4ccccc34)c2O[C@@H]1CN(C)S(=O)(=O)c1ccccc1,inactive: 0.995
19,C[C@@H]1CCCCO[C@H](CN(C)C(=O)c2ccccc2)[C@@H](C)CN([C@@H](C)CO)C(=O)c2cc(NC(=O)Nc3ccc(C(F)(F)F)cc3)ccc2O1,inactive: 1.04
20,C[C@@H]1CN([C@@H](C)CO)C(=O)c2cccc(NC(=O)C3CCOCC3)c2O[C@@H]1CN(C)C(=O)NC1CCCCC1,inactive: 0.973
21,C[C@H](CO)N1C[C@H](C)[C@@H](CN(C)Cc2ccc(-c3ccccc3)cc2)Oc2c(NC(=O)C3CC3)cccc2C1=O,inactive: 1.02
22,Nc1cnc(Cl)cn1,inactive: 0.99

row,SMILES,relative growth
1,COc1ccc(S(=O)(=O)Nc2ccc3c(c2)C(=O)N([C@H](C)CO)C[C@@H](C)[C@H](CN(C)C(=O)c2ccccc2)OCCCC[C@@H](C)O3)cc1,inactive: 1
2,C[C@@H]1CN([C@@H](C)CO)C(=O)Cc2cc(NC(=O)Nc3ccc(C(F)(F)F)cc3)ccc2O[C@@H]1CN(C)C(=O)Nc1ccc(F)cc1,inactive: 1.02
3,Cc1cc2c(s1)Nc1ccccc1N=C2N1CCN(C)CC1,inactive: 0.929
4,c1ccc(C2=Nc3ccccc3N=C(c3ccccc3)C2)cc1,inactive: 0.936
5,CCN(CC)CCOC(=O)c1ccc(N)cc1.Cl,inactive: 1.08
6,C[C@@H]1CN([C@@H](C)CO)C(=O)c2cccc(NC(=O)c3ccc(-c4nccs4)cc3)c2O[C@H]1CN(C)C(=O)NC1CCCCC1,inactive: 0.999
7,C[C@H](CO)N1C[C@H](C)[C@H](CN(C)Cc2ccccc2)Oc2ccc(NC(=O)CCCCCC(=O)Nc3ccccc3N)cc2C1=O,inactive: 0.995
8,COc1ccc(NC(=O)Nc2ccc3c(c2)C(=O)N([C@H](C)CO)C[C@H](C)[C@H](CN(C)C(=O)C2CCCCC2)OCCCC[C@H](C)O3)cc1,inactive: 1.04
9,COc1ccc(NC(=O)N(C)C[C@@H]2Oc3ccc(NS(C)(=O)=O)cc3CC(=O)N([C@H](C)CO)C[C@@H]2C)cc1,inactive: 0.996
10,CCCCC/C=C\C/C=C\C/C=C\CCCCCCC(=O)O,inactive: 0.9
11,C[C@H](CO)N1C[C@H](C)[C@H](CN(C)Cc2ccc(C(F)(F)F)cc2)Oc2ccc(NC(=O)Nc3ccc4c(c3)OCO4)cc2CC1=O,inactive: 1.06
12,C[C@@H]1CCCCO[C@@H](CN(C)C(=O)Nc2ccc(F)cc2)[C@H](C)CN([C@H](C)CO)C(=O)c2cc(NC(=O)c3ccccc3)ccc2O1,inactive: 1.01
13,C[C@@H]1CCCCO[C@H](CN(C)Cc2ccc(Cl)c(Cl)c2)[C@@H](C)CN([C@H](C)CO)C(=O)c2cc(NC(=O)CCCCCC(=O)Nc3ccccc3N)ccc2O1,inactive: 0.943
14,COc1ccncc1N,inactive: 0.981
15,C[C@H]1CN([C@@H](C)CO)C(=O)CCCn2cc(nn2)CO[C@H]1CN(C)S(=O)(=O)c1ccc2ccccc2c1,inactive: 0.972
16,O=C1c2ccccc2C(=O)C1c1ccc(Br)cc1,inactive: 1.07
17,C[C@H](CO)N1C[C@H](C)[C@@H](CN(C)Cc2ccccc2)Oc2c(NC(=O)CCCCCC(=O)Nc3ccccc3N)cccc2C1=O,inactive: 1.03
18,NNC(=O)c1cccc(Cn2cccn2)c1,inactive: 1.01
19,Cc1ccc(S(=O)(=O)Nc2ccc3c(c2)C(=O)N([C@@H](C)CO)C[C@@H](C)[C@@H](CN(C)C(=O)c2ccccc2)OCCCC[C@@H](C)O3)cc1,inactive: 0.995
20,COc1ccc(S(=O)(=O)N(C)C[C@H]2Oc3cc(-c4ccccc4OC)ccc3S(=O)(=O)N([C@H](C)CO)C[C@H]2C)cc1,inactive: 1.07
